Reference: PubChem BioAssay AID1477 (National Center for Advancing Translational Sciences (NCATS), 2009)
Fewer than 10 of roughly 230,000 compounds were called active. The shares of active, inactive and inconclusive entries below differ from those in the screen. The call rests on the fitted dose curve; in most records, active means well fitted curve in the direction sought with a large enough effect; inconclusive means small, poorly fitted or top-dose-only effect, or effect the other way, or another doubt; inactive means no such curve, though single readings can be large or run the other way. Potencies of inconclusive entries are left out as doubtful fits.
Wherever activity, negative = inhibition is given: % of control where 0% means no effect.

What follows are compounds tested against Runt-related transcription factor 1 (Homo sapiens) + Core-binding factor subunit beta (Homo sapiens) (UniProt Q01196+Q13951) (assay: qHTS Assay for Compounds Blocking the Interaction Between CBF-beta and RUNX1 for the Treatment of Acute Myeloid Leukemia). Conditions: AlphaScreen CBFb-His/RUNX1-biotin binding, biochemical; activity, negative = inhibition: at 59.8 µM (top of the series) unless noted.
Chain of UniProt Q01196 (Q01196 whole entry, looked up): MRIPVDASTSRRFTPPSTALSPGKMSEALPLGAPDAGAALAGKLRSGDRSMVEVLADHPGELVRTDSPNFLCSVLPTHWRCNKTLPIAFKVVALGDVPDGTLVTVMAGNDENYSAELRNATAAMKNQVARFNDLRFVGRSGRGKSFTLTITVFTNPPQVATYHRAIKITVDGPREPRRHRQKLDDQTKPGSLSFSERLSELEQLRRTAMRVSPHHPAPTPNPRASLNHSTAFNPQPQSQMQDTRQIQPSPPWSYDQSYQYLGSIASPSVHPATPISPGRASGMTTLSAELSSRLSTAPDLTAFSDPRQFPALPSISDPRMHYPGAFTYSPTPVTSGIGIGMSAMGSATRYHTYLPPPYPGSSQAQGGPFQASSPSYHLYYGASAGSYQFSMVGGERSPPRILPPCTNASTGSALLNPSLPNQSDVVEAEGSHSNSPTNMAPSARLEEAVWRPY
Chain of UniProt Q01196 (Q13951 whole entry, looked up): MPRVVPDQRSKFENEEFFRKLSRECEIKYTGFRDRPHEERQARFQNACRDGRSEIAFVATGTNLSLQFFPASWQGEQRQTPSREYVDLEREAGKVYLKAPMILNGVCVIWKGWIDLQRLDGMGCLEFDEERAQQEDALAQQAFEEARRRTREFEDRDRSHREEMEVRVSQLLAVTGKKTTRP
In short: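 Room-temperature protein-protein interaction test with 30 nM each of His-tagged CBF-beta and biotinylated RUNX1, 15 min with compound, then 90 min with nickel plus streptavidin beads. Signal read in AlphaScreen mode.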
With `CC1CCCO1` (stereo not given) the Potency was inconclusive [inhibitor, full curve, poor fit]. In the case of `O=C(Nc1ccc(N2CCOCC2)c(Cl)c1)c1c(F)c(F)c(F)c(F)c1F`, the Potency is reported as inconclusive [inhibitor, single point]. `O=C1/C(=C/c2cccnc2)Oc2cc(OS(=O)(=O)c3ccccc3)ccc21` was tested, and the “activity, negative = inhibition” value was inactive: -19.8%. With `O=C(NC1CCCCC1)C(c1cccnc1)N(CCc1ccccc1)C(=O)Cc1cccs1` (stereo not given) the “activity, negative = inhibition” value was inactive: -0.781%. With `COc1ccc(CNC(=O)C2CCC(CNc3nc(=S)[nH]c4ccccc34)CC2)cc1` (stereo not given) the “activity, negative = inhibition” value was inactive: 6.87%. In the case of `O=C(Cc1cccc2ccccc12)N/N=C/c1ccc2cccc(O)c2n1`, the “activity, negative = inhibition” value is reported as inactive: 2.52%. With `COc1ccc2c(Cl)c(C(=O)N/N=C3\CCCC(=O)C3)sc2c1` the Potency was inconclusive [inhibitor, single point]. With `Cc1ccc(C(=O)c2cc(C)sc2NC(=O)CN2CCN(C(=O)c3ccco3)CC2)cc1` the Potency was inconclusive [inhibitor, single point]. With `O=C(OCc1cc(=O)n2c(n1)sc1ccccc12)c1ccc(O)cc1` the Potency was inconclusive [inhibitor, single point]. `Cc1cccc(OCCCn2c(=O)sc3ccccc32)c1` was tested, and the Potency was inconclusive [activator, single point]. In the case of `Clc1ccccc1CSc1nnc(/C=C/c2ccccc2)o1`, the Potency is reported as inconclusive [activator, single point]. For `COc1cc(/C=N/Nc2cc(C)nc(NS(=O)(=O)c3ccccc3)n2)ccc1O`, the Potency was inconclusive [inhibitor, single point]. With `CCOc1cccc(/C=N/NC(=S)Nc2cc(S(=O)(=O)N3CCOCC3)ccc2N2CCOCC2)c1O` the Potency was inconclusive [inhibitor, partial curve]. For `O=C1CC(C2CCCO2)C(=O)N1c1cccc(Cl)c1` (stereo not given), the Potency was inconclusive [inhibitor, single point]. In the case of `COc1cccc(N2CCN(CC(=O)Nc3nnc(-c4ccccc4)s3)CC2)c1`, the Potency is reported as inconclusive [inhibitor, single point]. For `O=C1CCC/C(=N/Nc2ccc(Cl)cc2)C1`, the Potency was inconclusive [inhibitor, single point]. `O=C(Cc1ccccc1)c1nnc(-c2ccccc2)o1` was tested, and the “activity, negative = inhibition” value was inactive: 10.9%. In the case of `COc1cc(/C=N/NC(=O)c2cccc(NC(=O)c3ccccc3Cl)c2)ccc1O`, the “activity, negative = inhibition” value is reported as inactive: -4.13%. For `CNc1nc(C)cc(C)c1S(=O)(=O)c1ccc(Cl)cc1`, the Potency was inconclusive [activator, single point]. For `COc1cc(NC(=O)COC(=O)/C=C/c2ccc(O)c(OC)c2)cc(OC)c1`, the Potency was inconclusive [activator, partial curve]. In the case of `CC(CNc1ccccc1O)C(=O)O` (stereo not given), the Potency is reported as inconclusive [inhibitor, single point]. For `O=C1N=NC2=C1c1c3ccccc3c(O)n1CC2`, the “activity, negative = inhibition” value was inactive: 9.82%. `COc1ccc2[nH]c(-c3ccccc3)c(CCNC(C)=O)c2c1` was tested, and the Potency was “inactive”. In the case of `O=C1C=C(Nc2ccccc2)C(=O)c2ccccc21`, the Potency is reported as inconclusive [inhibitor, partial curve, poor fit]. For `O=C(O)CSc1cc(C(=O)c2ccccc2O)cn2c(=O)c3c4c(sc3nc12)CCCC4`, the Potency was inconclusive [inhibitor, single point]. `O=S(=O)(c1ccc2nc(COc3ccc(Cl)cc3Cl)[nH]c2c1)N1CCOCC1` was tested, and the “activity, negative = inhibition” value was inactive: 3.52%. For `COc1ccc(C(=O)/C=C/c2ccc(N3CCCCC3)c([N+](=O)[O-])c2)c(OC)c1`, the Potency was inconclusive [inhibitor, full curve]. With `COc1ccc2[nH]c(=O)c(CN(C(C)=O)c3cccc(C)c3)cc2c1` the “activity, negative = inhibition” value was inactive: 0.308%. For `COc1ccc2nc(NC(=S)N(C)C)sc2c1`, the Potency was inconclusive [inhibitor, single point]. In the case of `N#CC1=C(N)N(c2ccc(F)cc2)C2=C(C1c1ccc(O)cc1)S(=O)(=O)CC2` (stereo not given), the Potency is reported as inconclusive [inhibitor, partial curve]. In the case of `Cc1nn2c3ccccc3nc2c2ccccc12`, the Potency is reported as inconclusive [inhibitor, single point]. In the case of `CC(C)[C@H](NS(=O)(=O)c1ccccc1)C(=O)OCn1nnc2ccccc2c1=O`, the Potency is reported as inconclusive [inhibitor, single point]. With `CC(C)N1CCc2c(sc(NC(=O)c3nc4ccccc4s3)c2C(N)=O)C1` the Potency was inconclusive [inhibitor, single point]. With `Cc1ccc(NC(=O)C(=O)NCCc2c[nH]c3ccccc23)cc1C` the Potency was inconclusive [activator, single point]. In the case of `Cc1cc(C(=O)O)ccc1[N+](=O)[O-]`, the Potency is reported as inconclusive [inhibitor, single point]. With `Cc1nccc(-c2sc(-c3cccs3)nc2C)n1` the Potency was inconclusive [activator, partial curve]. In the case of `C[C@@H](C(=O)O)c1ccc(C(=O)c2ccccc2)s1`, the “activity, negative = inhibition” value is reported as inactive: 7.61% [at 21.7 µM]. For `Cc1occc1C(=O)N/N=C/C=C/c1ccccc1`, the Potency was inconclusive [activator, single point]. For `Cc1ccc(C2=CC(c3ccc(N(C)C)cc3)n3nnnc3N2)cc1` (stereo not given), the “activity, negative = inhibition” value was inactive: -2.11%. For `COc1ccc(N(C(=O)CS(=O)CC(=O)Nc2ccc(F)cc2)C(C(=O)NC2CCCCC2)c2cccs2)cc1` (stereo not given), the Potency was inconclusive [inhibitor, single point]. For `CC1=C([N+](=O)[O-])C(c2ccccc2)C2=C(N1)c1ccccc1C2=O` (stereo not given), the Potency was inconclusive [inhibitor, partial curve]. In the case of `COCCCNC(=O)c1ccc(NC(C)=O)cc1`, the “activity, negative = inhibition” value is reported as inactive: -8.07%. In the case of `CCc1cccc(N=c2c([N+](=O)[O-])nn(-c3ccc(Cl)cc3)n2O)c1`, the Potency is reported as inconclusive [inhibitor, partial curve]. For `O=C1CC(c2ccc(F)cc2)Cc2nc(N3CCc4ccccc43)ncc21` (stereo not given), the “activity, negative = inhibition” value was inactive: 20.7%. In the case of `Cc1ccc(N=N/C(=C\O)C(=O)c2ccc(Cl)cc2)cc1`, the Potency is reported as inconclusive [inhibitor, single point]. In the case of `Cc1cc(NC(=O)c2sc(Nc3cccc(C(F)(F)F)c3)nc2N)no1`, the “activity, negative = inhibition” value is reported as inactive: -13.3%. `O=C(Cn1cnc2scc(-c3ccccc3)c2c1=O)NCc1ccco1` was tested, and the Potency was inconclusive [inhibitor, single point]. For `O=C(c1ccc(Cl)cc1)c1cc(-c2ccccn2)c(N2CCOCC2)s1`, the Potency was inconclusive [activator, single point]. For `Cc1cc(/C=N/NC(N)=S)c(C)n1-c1ccc(Cl)c(Cl)c1`, the Potency was inconclusive [inhibitor, single point]. With `CCCCCCC[n+]1ccc(-c2cc[n+](CCCCCCC)cc2)cc1` the Potency was “inactive”. With `O=C(Nc1cccc(S(=O)(=O)N2CCOCC2)c1)c1c2c(nc3ccccc13)CCC2` the Potency was inconclusive [inhibitor, partial curve]. In the case of `COc1cccc(NC(=S)N/N=C2/CCCCc3ccccc32)c1`, the Potency is reported as inconclusive [inhibitor, partial curve]. For `Cc1cc(O)c(C(C)C)cc1Cl`, the Potency was “inactive”. In the case of `O=C(Oc1ccccc1)c1ccccc1OS(=O)(=O)c1ccccc1`, the Potency is reported as inconclusive [activator, single point]. In the case of `COc1cc(OC)c(CN2CCC(CO)(CCOc3ccccc3)CC2)c(OC)c1`, the “activity, negative = inhibition” value is reported as inactive: 3.7%. `CC1=NC(=O)C(N=Nc2ccccc2C(=O)O)N1c1ccccc1` (stereo not given) was tested, and the Potency was inconclusive [inhibitor, single point]. `Cc1ccc(CNc2ccc(S(=O)(=O)N3CCOCC3)cc2[N+](=O)[O-])cc1` was tested, and the Potency was inconclusive [inhibitor, partial curve]. With `COc1ccccc1NC(=O)CC1Nc2ccccc2NC1=O` (stereo not given) the Potency was inconclusive [inhibitor, partial curve]. In the case of `O=C(CSc1nnc(COc2ccccc2F)n1-c1ccccc1)NCc1ccco1`, the Potency is reported as inconclusive [activator, single point]. `O=C(CSc1ccccc1)Nc1cc(Cl)ccc1Oc1ccccc1` was tested, and the Potency was inconclusive [activator, single point]. In the case of `CN(C)c1ccc([C@@H]2[C@@H]([N+](=O)[O-])[C@H]3C=Cc4ccccc4N3[C@H]2C(=O)c2ccc(Cl)cc2)cc1`, the Potency is reported as inconclusive [inhibitor, partial curve]. For `COC(=O)C1=COC(OC2OC(CO)C(O)C(O)C2O)C2C1C=CC2(O)CO` (stereo not given), the Potency was inconclusive [inhibitor, partial curve]. With `CCC1CCCCN1C(=S)Nc1cccc(S(=O)(=O)N(C)C)c1` (stereo not given) the “activity, negative = inhibition” value was inactive: 14.8%. For `Cc1cccc([C@H]2[C@@H]3C=CCC[C@@H]3C(=O)N2Cc2ccccc2)c1`, the Potency was inconclusive [activator, single point]. With `Cc1cc(C)c(C)c(OCCOCCN2CCN(C)CC2)c1` the Potency was inconclusive [inhibitor, partial curve, poor fit]. For `CCC/C=C(\CCC)C(NS(=O)(=O)c1ccccc1)c1ccc(C(F)(F)F)cc1` (stereo not given), the Potency was inconclusive [activator, partial curve]. `CCN(CC)C(=O)CSc1nc2ccccc2c(=O)n1CCC(=O)N1CCN(c2ccccc2)CC1` was tested, and the Potency was inconclusive [activator, single point]. `Oc1ccccc1C=NC1=NN(c2cccc(C(F)(F)F)c2)CC1` was tested, and the “activity, negative = inhibition” value was inactive: -22.9%. With `CCOc1ccc2nc(SCC(=O)N3CCCc4ccccc43)sc2c1` the “activity, negative = inhibition” value was inactive: 12.6%. `O=C(COc1ccc(-c2ccccc2)cc1)NN=C1CCCC1` was tested, and the Potency was inconclusive [inhibitor, single point].
